# Some of the results follow.
# B1: ENSG00000136451:be:win_1101|CDS|ENSG00000136451|bound_else_gene|NA|bound_elsewhere_windowed (ssRNA)
# RNA: GGGAGUUCUACAGUCCGACGAUCGAGACUGUGGGAAGAAGCUGUUAAAGCAAGGAAGAAAGAAGCUGCUAACCUGUGCCAAACCUCCACGGCUGCUACGACACCUGUGACUCUCACUACUCCAUUCAGUAUAACAUCCUCUGUCAACAGAGGAUUGAGCAUCA
# B2: chr8:97276997:97277102:-|CDS|ENSG00000180543|unk|total|mutant (ssRNA)
# RNA: GGGAGUUCUACAGUCCGACGAUCAUCCCGGGCUUCUGGGGGCAAGCAUUUCAGAACCAUCCCCAGCCCGCAUCCUUUCUGAACCGCCAAGAGAAAGAGGUACUGAGCUACUUAAACAGCUUGGAAGUGGAAGAGCUCGGCCUUCAACAGAGGAUUGAGCAUCA
# B3: chr10:123166816:123166917:+|3pUTR|ENSG00000154473|unk|FALSE|unique (ssRNA)
# RNA: GGGAGUUCUACAGUCCGACGAUCAAAAACUUAAAGGUAUAUUAGCAGGUUAGCCUUUGUUCUGUGGGAGAUCCAGGCCUUGUUAGAAGGACCAAGGCCAGAAUGCCCAGUUUAGCCUUAGCAUUCAAACCCUUCAUUGUUUUUCAACAGAGGAUUGAGCAUCA
# B4: chr7:36452941:36453042:+|3pUTR|ENSG00000011426|msi1|FALSE|unique (ssRNA)
# RNA: GGGAGUUCUACAGUCCGACGAUCGUCUUGAAGCAGCAACGUCUUUCAGGGGUUGGAGACAGAAACCCAUUCUCCAAUCUCAGUAGUUUUUUCGAAAGGCUGUGAUCAUUUAUUGAUCGUGAUAUGACUUGUUACUAGGGUACUCAACAGAGGAUUGAGCAUCA
# B5: chr5:147393764:147393895:-|3pUTR|ENSG00000113657|msi1_unk|FALSE|overlapping (ssRNA)
# RNA: GGGAGUUCUACAGUCCGACGAUCUCCAAUGUUACGCUCGCUUGCCUAGCUUUACGAAUAUUGCUUUGUUUUCUGUUUAUGCAUAGCCUUGAUUUGUUUGACUCCCCUCCCCCCAUUUACAUGCAUGCAAUCAGACAGGCCACUCAACAGAGGAUUGAGCAUCA
# B6: chr19:42297191:42297292:-|CDS|ENSG00000079462|unk|FALSE|unique (ssRNA)
# RNA: GGGAGUUCUACAGUCCGACGAUCCCGACAGGUGAACGAGCUGGUACGGGCGGCACUGGCUGGCCACCCUCGGGCCCACUUCCUAGAUGCCGACCCUGGCUUUGUGCACUCAGAUGGCACCAUCAGCCAUCAUGACAUGUAUGACAACAGAGGAUUGAGCAUCA
# B7: chr1:10178627:10178729:+|CDS|ENSG00000130939|unk|total|mutant (ssRNA)
# RNA: GGGAGUUCUACAGUCCGACGAUCUAAGGAAUUGUUUGAAGAAGUUAUUUCAAAGAUGCGGAAGGCAGGGAUCAAAUCCACAACCGCAACCGAAAAAUUUAAGCUGCUCGCCGAGAAAGUGGAGGAGACCGUGGCCAAGAACGCCAACAGAGGAUUGAGCAUCA
# B8: ENSG00000006715:stop:overlap|stop_codon|ENSG00000006715|stop_codon|NA|stop_codon (ssRNA)
# RNA: GGGAGUUCUACAGUCCGACGAUCGCAACAUCUGCAGUGCUAAGAACCGUGGACCAGGAAGUGCAAUUUUGGAGAUGAAAAAAUAGCUCAUUUCUCCUUGUCAGUCUCCUUGUCACCACUCUUUUUGAGACUGUUUUUGCAACACAACAGAGGAUUGAGCAUCA
# B9: chr10:80519475:80519574:+|3pUTR|ENSG00000108219|msi1_unk|total|mutant (ssRNA)
# RNA: GGGAGUUCUACAGUCCGACGAUCAGUGUGGUGUAUACUGGUGGCUGUUGAUGAUGAUUUUUUUUUUUUUACACAAUUCUCUGCCGACCCGGAGAAGAAUGCUUGUGUUUUUCGGAAGUGUGAUGCUUCUCUUUGACUGCCAAACAACAGAGGAUUGAGCAUCA
# B10: chr8:76983344:76983445:-|CDS|ENSG00000164751|msi1|total|mutant (ssRNA)
# RNA: GGGAGUUCUACAGUCCGACGAUCAGCCACCAGUGGCAAAGAAUGCGCUCUAUGUGGAGAGUGGCCCACCAUGCCUCACACCACCGGAUGUGAGCAUAUUUUCUGUUAUUUCUGUGCUAAGAGCCGUUUCUUAUUUGACGUGUACAACAGAGGAUUGAGCAUCA
# B11: ENSG00000143815:stop:overlap|stop_codon|ENSG00000143815|stop_codon|NA|stop_codon (ssRNA)
# RNA: GGGAGUUCUACAGUCCGACGAUCGAUUGAUUGGAUGGGAACCUCGACAGGACUCCACAAUACAUUUAGUUGUUAUUCCUUCUUAGUCUUCUCUAGUCUAAUAGUUGUUUAGGCUUUCCUUGUCUCUCAUGACCUUGAUACUUUCAACAGAGGAUUGAGCAUCA
# B12: chr6:11183581:11183682:-|3pUTR|ENSG00000111859|msi1|FALSE|unique (ssRNA)
# RNA: GGGAGUUCUACAGUCCGACGAUCAAAACAAGAAUGCAUGAUCUCAGAGUGAUUAAAAAAAAAUCAGUGGAAAUAAAUGAUCAUAGAAGGUGCUUUUCAAAACAACUGCUAUUAUAAUUCUCAAAGUCCUACUCUGCCAAAAGACAACAGAGGAUUGAGCAUCA
# B13: ENSG00000165476:stop:overlap|stop_codon|ENSG00000165476|stop_codon|NA|stop_codon (ssRNA)
# RNA: GGGAGUUCUACAGUCCGACGAUCAAGAGGUGCGGUACGGGUCACUAAAAUACAAAGUGAAGAAACGACCACAAGUGUAUUUUUAGUCAUCUACACGUCAAAUAUCCCAAGACAGAUUAUGCUAAAUACAUCGACUUCAUCUUCCAACAGAGGAUUGAGCAUCA
# B14: chr3:183812448:183812549:+|3pUTR|ENSG00000163872|msi1|total|mutant (ssRNA)
# RNA: GGGAGUUCUACAGUCCGACGAUCUAUUGCAGGUAUCACAGCCUAAAGAAAUUAUCUUUUUGCAAAAGAAAUAUUAAAUGAUUCCGCAGUCUCCACGUGUGUUAAUGUUUCAAACGUGUAUCAUAAUGUGUAUAAUUGUGUAACCAACAGAGGAUUGAGCAUCA
# B15: chr4:8867047:8867692:-|three_prime_utr|ENSG00000215612|control|control|control (ssRNA)
# RNA: GGGAGUUCUACAGUCCGACGAUCGACCCUGUGGACCUGUGUGGACGCGCGAUUCAGCGGCAGGCGCAGGGCUCAGGGGGCGUUAGGGAAGGGAUGGUCGCUCCUGCGGCCUCCUAGAUACCUCGGGAGCGCAGGCCGCGGCCGCAACAGAGGAUUGAGCAUCA
# B16: chr21:36896991:36897096:-|CDS|ENSG00000159267|unk|total|mutant (ssRNA)
# RNA: GGGAGUUCUACAGUCCGACGAUCCAGUGGCUUGGGAAACAUGUGGACUCCGAGGGAGAAAUAAAAUCCGGCCAGCUCUCUCUCCGAUUUGUUUCAUCCUACGUGUCUGAAGCCGAAAUAACCCCAUCUUGUAUACCUGUGGUGCAACAGAGGAUUGAGCAUCA
# B17: chr3:168010103:168010202:-|3pUTR|ENSG00000173905|msi1_unk|total|mutant (ssRNA)
# RNA: GGGAGUUCUACAGUCCGACGAUCGCUCAAACAUAAAUCUGCCUACUGAACUCCCGGAUAUUUAAUUACAAAAAUUAAGAACUCCGACUUUUUUAAAACUUUUGUAUCCGAAAUGCGCAUACAUUUAUAUGAAUAUAUUUUGAUCAACAGAGGAUUGAGCAUCA
# B18: chr1:169690664:169691783:-|three_prime_utr|ENSG00000188404|control|control|control (ssRNA)
# RNA: GGGAGUUCUACAGUCCGACGAUCAGUUUUCUUGCAGAUCAAAUUUCACGUCGUCUUCUGUAUACUGUGGAGGUACACUCUUAUAGAAAGUUCAAAAAGUCUACGCUCUCCUUUCUUUCUAACUCCAGUGAAGUAAUGGGGUCCCAACAGAGGAUUGAGCAUCA
# B19: chr1:40238196:40238297:+|CDS|ENSG00000117000|msi1|FALSE|unique (ssRNA)
# RNA: GGGAGUUCUACAGUCCGACGAUCCGGUAUUCCCCAUUUCAGUGUCAUAUUUGCCAAAGGUCAUUUACAAGAAAAACACACCUUAGGAUUCAUUAUAAAAAUAAACAUCAAAUUGGCAGUGACAGAGCAACUCACAAACUAUUACAACAGAGGAUUGAGCAUCA
# B20: chr17:5346795:5346911:+|CDS|ENSG00000029725|unk|FALSE|unique (ssRNA)
# RNA: GGGAGUUCUACAGUCCGACGAUCAGAACUGAAUCAUUAUCUGGAAGCUGAGAAAUCUUGUAGGACUGAUCUAGAGAUGUAUGUAGCUGUUUUGAAUACUCAGAAAUCUGUUCUACAGGAAGAUGCUGAGAAACUGCGGAAAGACAACAGAGGAUUGAGCAUCA
# B21: chr5:181194513:181194614:-|3pUTR|ENSG00000146054|unk|total|mutant (ssRNA)
# RNA: GGGAGUUCUACAGUCCGACGAUCUCUUUGAGUGACAAGCCCGGGACAACAGCCAGUGGGCAUCACGGCUCUCCAGCACUCCUCCGCCGGAGGAUACAGAGUGAUGGGUGCAUCCUGACCAAUGCGACAACCAACACGUGCUCUCAACAGAGGAUUGAGCAUCA
# B22: chr8:17753977:17754079:-|CDS|ENSG00000129422|unk|total|mutant (ssRNA)
# RNA: GGGAGUUCUACAGUCCGACGAUCAAAAAAGCAGAAAUUCUAAUUAACAAGACACAUAAGCAGCAGUUUAAUAAACUCAUUACCCGCCAGGCUGUGCAUGUUACAACUCAUUCUAAAAAUGCUUCACACAGGGUUCCAAGAACACAACAGAGGAUUGAGCAUCA
# Target: MSI1 full-length (mouse, UniProt Q61474 1-362)
# Assay: nsRBNS (natural sequence RNA bind-n-seq); RBNS binding buffer (assumed for nsRBNS): 25 mM Tris pH 7.5, 150 mM KCl, 3 mM MgCl2, 0.01% Triton X-100, 500 ug/ml BSA, 20 U/ml SUPERase-In, 4 C; UNK is unkempt and MSI1 is Musashi-1; names of the RNAs are library labels; protein concentration not given here; high values mean tight binding
# UniProt Q61474, sequence (Q61474 whole entry): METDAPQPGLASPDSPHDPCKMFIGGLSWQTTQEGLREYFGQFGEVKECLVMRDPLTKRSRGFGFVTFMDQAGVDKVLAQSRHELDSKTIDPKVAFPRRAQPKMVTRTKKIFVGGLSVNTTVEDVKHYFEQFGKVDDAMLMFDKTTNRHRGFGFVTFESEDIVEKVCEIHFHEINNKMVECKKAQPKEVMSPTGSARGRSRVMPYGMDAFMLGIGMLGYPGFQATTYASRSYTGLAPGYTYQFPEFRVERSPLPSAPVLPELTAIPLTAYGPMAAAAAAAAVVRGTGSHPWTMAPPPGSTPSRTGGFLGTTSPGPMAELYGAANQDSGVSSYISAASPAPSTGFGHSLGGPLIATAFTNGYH
row,Binder,binding signal [enrichment R]
1,B1,0.715
2,B2,0.325
3,B3,5.77
4,B4,1.29
5,B5,0.623
6,B6,0.323
7,B7,0.449
8,B8,0.498
9,B9,0.356
10,B10,0.344
11,B11,0.398
12,B12,0.369
13,B13,1.14
14,B14,0.427
15,B15,0.389
16,B16,0.447
17,B17,1.09
18,B18,0.432
19,B19,1.79
20,B20,2.42
21,B21,0.305
22,B22,0.596

# — article PMC12136788
